# In the supplement of paper PMC4604168 (melanoma cell lines):
# The other results are listed elsewhere or left out. Most values come without repeats; read them as rough.
# Test system: A375
# Test: cell count relative to DMSO control; melanoma cells; higher = more viable cells
# Details: library dose: standard library concentration; 72 h
# 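Also: cells treated in 1,536-well plates, then fixed and DAPI-stained, with nuclei counted from automated high-throughput microscope images.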
row,SMILES,cell count [%]
1,"CCN(CC)CCNC(=O)c1c(C)[nH]c(/C=C2\C(=O)Nc3ccc(F)cc32)c1C [sunitinib] + NCC(=O)Nc1ccc(-n2nc(C(F)(F)F)cc2-c2ccc3c(ccc4ccccc43)c2)cc1 [OSU03012] (first compound 2 µM, partner dose 5 µM)",53.5
2,"CCN(CC)CCNC(=O)c1c(C)[nH]c(/C=C2\C(=O)Nc3ccc(F)cc32)c1C [sunitinib] + Clc1ccc(Nc2nnc(Cc3ccncc3)c3ccccc23)cc1 [vatalanib] (first compound 2 µM, partner dose 10 µM)",92.8
3,"C[C@]1(O)C[C@@H](c2nc(-c3ccc4ccc(-c5ccccc5)nc4c3)c3c(N)nccn32)C1 + C#Cc1cccc(Nc2ncnc3cc(OCCOC)c(OCCOC)cc23)c1 [erlotinib] (first compound 2 µM, partner dose 4 µM)",92.7
4,"COc1cc([C@@H]2c3cc4c(cc3[C@@H](O[C@@H]3O[C@@H]5CO[C@@H](C)O[C@H]5[C@H](O)[C@H]3O)[C@H]3COC(=O)[C@H]23)OCO4)cc(OC)c1O [etoposide] + COCC[n+]1c2c(n(Cc3cnccn3)c1C)C(=O)c1ccccc1C2=O [YM155] (first compound 0.1 µM, partner dose 0.002 µM)",72.4
5,"C[C@]1(O)C[C@@H](c2nc(-c3ccc4ccc(-c5ccccc5)nc4c3)c3c(N)nccn32)C1 + Cn1nnc2c(C(N)=O)ncn2c1=O [temozolomide] (first compound 2 µM, partner dose 10 µM)",81.9
6,"CCN(CC)CCNC(=O)c1c(C)[nH]c(/C=C2\C(=O)Nc3ccc(F)cc32)c1C [sunitinib] + Nc1cccc2c1CN(C1CCC(=O)NC1=O)C2=O [lenalidomide] (first compound 2 µM, partner dose 5 µM)",89.1
7,"Cn1cnc2c(F)c(Nc3ccc(Br)cc3Cl)c(C(=O)NOCCO)cc21 [selumetinib] + O=C(Nc1cccc(Cl)c1)Nc1ncc(CCNc2ncnc3ccsc23)s1 [SNS314] (first compound 0.075 µM, partner dose 0.004 µM)",81
8,"C[C@]1(O)C[C@@H](c2nc(-c3ccc4ccc(-c5ccccc5)nc4c3)c3c(N)nccn32)C1 + O=C(O)c1ccc2c(c1)nc(Nc1cccc(Cl)c1)c1ccncc12 [CX4945] (first compound 2 µM, partner dose 2 µM)",57.2
9,"COc1cc([C@@H]2c3cc4c(cc3[C@@H](O[C@@H]3O[C@@H]5CO[C@@H](C)O[C@H]5[C@H](O)[C@H]3O)[C@H]3COC(=O)[C@H]23)OCO4)cc(OC)c1O [etoposide] + C[C@@H]1CCN(C(=O)CC#N)C[C@@H]1N(C)c1ncnc2[nH]ccc12 [CP690550] (first compound 0.1 µM, partner dose 5 µM)",69.1
10,"CCN(CC)CCNC(=O)c1c(C)[nH]c(/C=C2\C(=O)Nc3ccc(F)cc32)c1C [sunitinib] + COCC[n+]1c2c(n(Cc3cnccn3)c1C)C(=O)c1ccccc1C2=O [YM155] (first compound 2 µM, partner dose 0.002 µM)",85.8
11,"Cn1cnc2c(F)c(Nc3ccc(Br)cc3Cl)c(C(=O)NOCCO)cc21 [selumetinib] + CC(=O)O[C@@]12CO[C@@H]1C[C@H](O)[C@@]1(C)C(=O)[C@H](O)C3=C(C)[C@@H](OC(=O)[C@H](O)[C@@H](NC(=O)OC(C)(C)C)c4ccccc4)C[C@@](O)([C@@H](OC(=O)c4ccccc4)[C@H]21)C3(C)C [Docetaxel] (first compound 0.075 µM, partner dose 0.0005 µM)",77.1
12,"CCN(CC)CCNC(=O)c1c(C)[nH]c(/C=C2\C(=O)Nc3ccc(F)cc32)c1C [sunitinib] + NC1(c2ccc(-c3nc4ccn5c(=O)[nH]nc5c4cc3-c3ccccc3)cc2)CCC1 [MK2206] (first compound 2 µM, partner dose 2 µM)",88.4
13,"C[C@]1(O)C[C@@H](c2nc(-c3ccc4ccc(-c5ccccc5)nc4c3)c3c(N)nccn32)C1 + CCCS(=O)(=O)Nc1ccc(F)c(C(=O)c2c[nH]c3ncc(Cl)cc23)c1F [PLX4720] (first compound 2 µM, partner dose 0.4 µM)",103
14,"CCN(CC)CCNC(=O)c1c(C)[nH]c(/C=C2\C(=O)Nc3ccc(F)cc32)c1C [sunitinib] + CC(C)(C)c1cnc(CSc2cnc(NC(=O)C3CCNCC3)s2)o1 [SNS-032] (first compound 2 µM, partner dose 0.05 µM)",106
15,"Cn1cnc2c(F)c(Nc3ccc(Br)cc3Cl)c(C(=O)NOCCO)cc21 [selumetinib] + O=C(O)c1ccc2c(c1)nc(Nc1cccc(Cl)c1)c1ccncc12 [CX4945] (first compound 0.075 µM, partner dose 2 µM)",82.5
16,"CCN(CC)CCNC(=O)c1c(C)[nH]c(/C=C2\C(=O)Nc3ccc(F)cc32)c1C [sunitinib] + O=C(O)[C@@H]1[O][Sb](=[O])([O][Sb]2(=[O])[O][C@H]([C@H](O)CO)[C@H](O)[C@H](C(=O)O)[O]2)[O][C@H]([C@H](O)CO)[C@@H]1O [stibogluconate] (first compound 2 µM, partner dose 10 µM)",125
17,"Cn1cnc2c(F)c(Nc3ccc(Br)cc3Cl)c(C(=O)NOCCO)cc21 [selumetinib] + OCCn1cc(-c2cnc3nnn(Cc4ccc5ncccc5c4)c3n2)cn1 [PF04217903] (first compound 0.075 µM, partner dose 5 µM)",91.1
18,"COc1cc([C@@H]2c3cc4c(cc3[C@@H](O[C@@H]3O[C@@H]5CO[C@@H](C)O[C@H]5[C@H](O)[C@H]3O)[C@H]3COC(=O)[C@H]23)OCO4)cc(OC)c1O [etoposide] + NC1(c2ccc(-c3nc4ccn5c(=O)[nH]nc5c4cc3-c3ccccc3)cc2)CCC1 [MK2206] (first compound 0.1 µM, partner dose 2 µM)",126
19,"C[C@]1(O)C[C@@H](c2nc(-c3ccc4ccc(-c5ccccc5)nc4c3)c3c(N)nccn32)C1 + Cn1c(Nc2ccc(C(F)(F)F)cc2)nc2cc(Oc3ccnc(-c4ncc(C(F)(F)F)[nH]4)c3)ccc21 [CHIR265] (first compound 2 µM, partner dose 0.4 µM)",58.1
20,"Cn1cnc2c(F)c(Nc3ccc(Br)cc3Cl)c(C(=O)NOCCO)cc21 [selumetinib] + CN(c1ncccc1CNc1nc(Nc2ccc3c(c2)CC(=O)N3)ncc1C(F)(F)F)S(C)(=O)=O [PF562271] (first compound 0.075 µM, partner dose 0.4 µM)",70.5
21,"Cn1cnc2c(F)c(Nc3ccc(Br)cc3Cl)c(C(=O)NOCCO)cc21 [selumetinib] + NC(=O)Nc1cc(-c2cccc(F)c2)sc1C(=O)N[C@H]1CCCNC1 [AZD7762] (first compound 0.075 µM, partner dose 0.1 µM)",60.8
22,"C[C@]1(O)C[C@@H](c2nc(-c3ccc4ccc(-c5ccccc5)nc4c3)c3c(N)nccn32)C1 + O=C(O)c1ccc(-c2c[nH]c3ncc(-c4ccccc4)cc23)cc1C1CCCC1 [GSK650394] (first compound 2 µM, partner dose 0.8 µM)",82.5
23,"C[C@]1(O)C[C@@H](c2nc(-c3ccc4ccc(-c5ccccc5)nc4c3)c3c(N)nccn32)C1 + NCC(=O)Nc1ccc(-n2nc(C(F)(F)F)cc2-c2ccc3c(ccc4ccccc43)c2)cc1 [OSU03012] (first compound 2 µM, partner dose 5 µM)",35.9
24,"COc1cc([C@@H]2c3cc4c(cc3[C@@H](O[C@@H]3O[C@@H]5CO[C@@H](C)O[C@H]5[C@H](O)[C@H]3O)[C@H]3COC(=O)[C@H]23)OCO4)cc(OC)c1O [etoposide] + CO[C@@H]1[C@H](N(C)C(=O)c2ccccc2)C[C@H]2O[C@]1(C)n1c3ccccc3c3c4c(c5c6ccccc6n2c5c31)C(=O)NC4 [Midostaurin] (first compound 0.1 µM, partner dose 0.4 µM)",73.9
25,"CCN(CC)CCNC(=O)c1c(C)[nH]c(/C=C2\C(=O)Nc3ccc(F)cc32)c1C [sunitinib] + Cc1cc(Nc2cc(N3CCN(C)CC3)nc(/C=C/c3ccccc3)n2)n[nH]1 [ENMD2076] (first compound 2 µM, partner dose 0.2 µM)",97.8
26,"C[C@]1(O)C[C@@H](c2nc(-c3ccc4ccc(-c5ccccc5)nc4c3)c3c(N)nccn32)C1 + C[C@@H]1CCN(C(=O)CC#N)C[C@@H]1N(C)c1ncnc2[nH]ccc12 [CP690550] (first compound 2 µM, partner dose 5 µM)",95
27,"CCN(CC)CCNC(=O)c1c(C)[nH]c(/C=C2\C(=O)Nc3ccc(F)cc32)c1C [sunitinib] + CC(=O)O[C@@]12CO[C@@H]1C[C@H](O)[C@@]1(C)C(=O)[C@H](O)C3=C(C)[C@@H](OC(=O)[C@H](O)[C@@H](NC(=O)OC(C)(C)C)c4ccccc4)C[C@@](O)([C@@H](OC(=O)c4ccccc4)[C@H]21)C3(C)C [Docetaxel] (first compound 2 µM, partner dose 0.0005 µM)",67.8
28,"COc1cc([C@@H]2c3cc4c(cc3[C@@H](O[C@@H]3O[C@@H]5CO[C@@H](C)O[C@H]5[C@H](O)[C@H]3O)[C@H]3COC(=O)[C@H]23)OCO4)cc(OC)c1O [etoposide] + Cc1cc(Nc2cc(N3CCN(C)CC3)nc(/C=C/c3ccccc3)n2)n[nH]1 [ENMD2076] (first compound 0.1 µM, partner dose 0.2 µM)",64
